Among all 71,000 compounds or so, about 1,800 (2.5%) were called active. Inconclusive results, whose numbers are uncertain, are shown with a selection of clear calls. Calls follow the shape of the dose curve; as a rule, active = well fitted activation curve with a large enough effect in the signal ratio, with a control signal flat (not every such curve was filed as active); inconclusive = small, poorly fitted or top-dose-only effect, or effect the other way, or a change in a side signal; inactive = flat fitted curve, though single readings scatter; the % refers to the signal ratio. Where the call is inconclusive, the potency comes from a doubtful curve fit.
test: Cell signaling CRE-BLA (Fsk stim); conditions: CHO CRE-bla reporter (cAMP response element driving beta-lactamase), forskolin EC10, beta-lactamase ratio; activity change, negative = inhibition: at 38.2 µM (top of the series) unless noted; as to activity change, negative = inhibition: % of control where 0% means no effect
In short: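 CRE-bla CHO cells stimulated with EC10 NKH 477 (water-soluble forskolin) and compound titrations, 3 h at 37C; beta-lactamase read with CCF4 after 2 h at room temperature. Activity from 460/530 nm emission ratio, AC50 values for positive or negative modulation.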
Potency is read from the fitted curve at half-maximal effect; tags tell the direction and shape of the fitted curve.

| SMILES | activity change, negative = inhibition | Potency |
| --- | --- | --- |
| CCCn1c(NC(=O)c2ccc(Cl)c(S(=O)(=O)N3CCCC3)c2)nc2ccccc21 | inconclusive: 16.3% |  |
| C=C(C)Cn1c(CCNC(=O)C(C)(C)C)nc2ccccc21 | inconclusive: -11.2% |  |
| COc1ccc(N(C(=O)Cn2nnc3ccccc32)C(C(=O)NCc2ccco2)c2ccc(C)o2)cc1 (stereo not given) | inactive: -21.5% |  |
| Cc1ccc(S(=O)(=O)c2cc3c(=O)n4ccccc4nc3n(Cc3ccco3)c2=N)cc1C |  | inconclusive: 15.8 µM [rising, partial curve] |
| CC(C)CN1CC2(CCN(C(=O)c3cnccn3)CC2)C1 | inactive: -3.69% |  |
| COC(=O)[C@@]1(Cc2ccccc2)[C@H]2c3cc(C(=O)N(C)C)n(C[C@H](O)CO)c3C[C@H]2CN1C(=O)c1ccccc1 | inactive: -4.97% |  |
| CCCc1nc(N)c(C#N)c(N)c1C#N |  | active: 5.01 µM |
| COc1cc(C2C(C#N)=C(N)Oc3c2oc(CO)cc3=O)ccc1OC(C)C (stereo not given) | inconclusive: 14.3% |  |
| Cc1ccc2c(c1)-c1c(cnn1CC(=O)N1CCCN(Cc3ccccc3F)C1)CO2 | inconclusive: -20% |  |
| CCC(C)[C@H](NC(=O)N1CCCC1)C(=O)O (stereo not given in full) |  | inconclusive: 0.0158 µM [rising, full curve, poor fit] |
| COc1cccc(-c2nc(C(N)=O)c3[nH]c(=O)n(-c4ccccc4)c3n2)c1OC |  | inconclusive: 12.6 µM [rising, partial curve] |
| Cc1cccc(NC(=O)c2oc3ccc(S(=O)(=O)N4CCOCC4)cc3c2C)c1C | inconclusive: -9.87% |  |
| COc1ccc(Oc2ncc3nc(C)c(=O)n(CCC#N)c3n2)cc1 | inactive: 5.44% |  |
| O=C(c1ccncc1)N1CCC2(CCCN(c3ccc(-c4ccccc4)cc3)C2)CC1 | inconclusive: 16.7% |  |
| CC(C)[C@H](Sc1nc(N)nc2nc[nH]c12)C(=O)O | inactive: 4.18% [at 7.6 µM] |  |
| CN1C(=O)Cn2c1nc1ccccc12 | inactive: 0.0826% |  |
| Cc1cc(-c2csc(NC(=O)c3cc4ccccc4o3)n2)c(C)n1C | inactive: -8.14% |  |
| CCCC[C@@H]1C[C@H]1C(NC(=O)c1cccnc1)c1ccc(Cl)cc1 (stereo not given in full) | inactive: -8.29% |  |
| CCCCNS(=O)(=O)c1ccc2nc(SCC(=O)Nc3sccc3C#N)[nH]c2c1 | inconclusive: -12.9% |  |
| O=P(O)(CCCP(=O)(O)CCc1ccccc1)CCc1ccccc1 | inconclusive: 6.7% |  |
| CC(=O)N1CCCc2cc(S(=O)(=O)NC(C(=O)NCc3ccc(C)cc3)C(C)C)ccc21 (stereo not given) | inactive: -11.8% |  |
| Cc1ccc(OCC(O)CN2CCN(CC(O)COc3ccc(C)cc3Cl)CC2)c(Cl)c1 (stereo not given) | inconclusive: 4.2% [at 7.6 µM] |  |

| SMILES | activity change, negative = inhibition | Potency |
| --- | --- | --- |
| Oc1c(CN2CCN(c3ccccc3)CC2)cc(Br)c2cccnc12 | inactive: -2.9% [at 7.6 µM] |  |
| COc1ccc(CNc2nc(-c3cccc(C#N)c3)nc3ccccc23)c(OC)c1 |  | active: 2 µM |
| O=C1c2ccccc2C(=O)N1CCCc1nc2ccccc2c(=O)n1-c1cccnc1 |  | inconclusive: 10 µM [rising, partial curve] |
| O=c1c(-c2cccs2)nc2cnc(N3CCNCC3)nc2n1C1CC1 |  | inconclusive: 1.58 µM [rising, full curve] |
| c1ccc2c(c1)ncn2Cc1nnc2sc(-c3ccc4c(c3)OCO4)nn12 |  | active: 12.6 µM |
| CCOC(=O)c1oc2ccccc2c1NC(=O)c1ccc(S(=O)(=O)N(C)C)cc1 |  | inconclusive: 3.98 µM [rising, partial curve] |
| Cc1ccc(NC(=O)C2(N(C(=O)Cn3nnnc3N)c3ccc(C)cc3)CCCCC2)cc1 | inactive: -17.4% |  |
| CCCn1nc(NC(=O)c2cccs2)c2cc3cc(OC)ccc3nc21 |  | inconclusive: 12.6 µM [rising, partial curve] |
| CC12CCC(C(=O)Nc3ccc4c(c3)OCCO4)(OC1=O)C2(C)C (stereo not given) | inconclusive: 15.9% [at 7.6 µM] |  |
| O=C(OCC(=O)N1c2ccccc2Sc2ccccc21)C1CC(=O)N(Cc2ccco2)C1 (stereo not given) | inconclusive: 3.25% |  |
| Clc1ccc(C2=CSC3=NCCN23)cc1Cl | inconclusive: 8.3% |  |
| COC(=O)c1ccccc1NC(=O)c1ccccc1SC |  | inconclusive: 12.6 µM [rising, single point] |
| O=c1cc(C23CC4CC(CC(C4)C2)C3)[nH][nH]1 | inconclusive: -6.38% |  |
| COc1cc2c(cc1OC)C(c1cc3cc(OC)c(OC)cc3[nH]c1=O)N(C(=O)C1CC1)CC2 (stereo not given) |  | inconclusive: 12.6 µM [rising, single point] |
| CCN(CC)S(=O)(=O)c1cccc(-c2nnc(SCc3ncc(-c4ccccc4)o3)n2C)c1 |  | inconclusive: 12.6 µM [falling, single point] |
| CC(C)C(O)(C(C)C)C(C)C | inactive: 0.545% [at 7.6 µM] |  |
| Cc1ccccc1-c1cncnc1NCc1cccnc1 | inactive: -5.56% |  |
| COc1ccc(OC)c(C2C(C(=O)c3cc4ccccc4o3)=C(O)C(=O)N2c2cc(C)on2)c1 (stereo not given) | inconclusive: -3.81% |  |
| CCCn1c(=NC(=O)c2ccncc2)c(C#N)cc2c(=O)n3cccc(C)c3nc21 |  | active: 1 µM |
| CN(C)c1cccc(C(=O)n2cc(C(=O)c3cc(F)ccc3O)cn2)c1 | inactive: -13.1% |  |
| CN(Cc1cc2ccccc2[nH]c1=O)S(=O)(=O)c1ccccc1 | inactive: 17.7% |  |
| O=C(CCS(=O)(=O)c1ccc(Br)s1)NCc1cccs1 | inconclusive: 20.8% |  |

| SMILES | activity change, negative = inhibition | Potency |
| --- | --- | --- |
| c1ccc(Oc2cccc(OCCn3cncn3)c2)cc1 | inconclusive: 17% |  |
| CCOn1c(=O)c(-c2ccc(OC)cc2)[n+]([O-])c2ccccc21 | inactive: -16.3% |  |
| COc1ccc(C2CC(C(F)(F)F)n3nc(C(=O)NCCN4CCOCC4)cc3N2)cc1 (stereo not given) | inactive: -1.55% |  |
| O=P(O)(O)c1ccccc1OCCCCCOc1ccccc1P(=O)(O)O | inconclusive: 16.3% |  |
| Cc1csc(NC(=O)CSc2nc3ccccc3c(=O)[nH]2)n1 |  | inconclusive: 15.8 µM [rising, single point] |
| CC(C)CN(CC(C)C)C(=O)C12CCC(C)(C(=O)C1)C2(C)C (stereo not given) | inactive: -1.4% |  |
| O=C(Nc1ccc(N2CCCC2)cc1)c1cccc(F)c1 | inconclusive: 7.16% |  |
| COc1cc2c(cc1OC)C1=C(C#N)CC/C(=N\S(=O)(=O)c3ccccc3)N1CC2 |  | active: 0.398 µM |
| Cc1occc1C(=O)Nc1ccccc1C(=O)O | inactive: -5.7% |  |
| CC(=O)Nc1ccc(NC(=O)Cn2cc3c(n2)CCCC3)cc1 | inconclusive: 3.53% |  |
| O=C(O)C1CC2(C1)CC(C(=O)O)C2 (stereo not given) | inactive: 2% [at 7.6 µM] |  |
| CCN1CCc2c(sc3c2c(NCc2ccco2)nc2nnnn23)C1 |  | inconclusive: 7.94 µM [rising, partial curve] |
| CC(C)Oc1ccc(C(=O)Nc2ccc(N(C)C)cc2)cc1 | inconclusive: -6.01% [at 7.6 µM] |  |
| Cc1ccccc1Cn1nc(C)c(NC(=O)c2cc(-c3cccs3)on2)c1C | inactive: -14.9% |  |
| COC(=O)c1cccc(COC(=O)c2ccccc2NC(=O)c2ccco2)c1 | inactive: 18.1% |  |
| O=S(=O)(c1ccc2ccccc2c1)N1CCCCC1 | inactive: -6.99% |  |
| CCNc1sc(C(=O)c2cccs2)c(N)c1-c1nc2ccccc2s1 |  | inconclusive: 3.98 µM [falling, partial curve] |
| O=C(NC[C@@H]1CCCCN1)c1cc(OCC(F)(F)F)ccc1OCC(F)(F)F | inactive: 2.89% [at 17.1 µM] |  |
| c1ccc2sc(N3CCN(Cc4nnnn4CC4CCCO4)CC3)nc2c1 (stereo not given) | inactive: -7.72% |  |
| Cc1oc(/N=C/c2c(O)ccc3ccccc23)c(C#N)c1C | inactive: -6.72% |  |
| COc1cc2ccc(=O)oc2c(O)c1O |  | inconclusive: 6.31 µM [rising, full curve] |
| O=C1CCCN1CCCNc1ncnc2c1[nH]c1ccc(Cl)cc12 |  | active: 1 µM |

| SMILES | activity change, negative = inhibition | Potency |
| --- | --- | --- |
| CCOC(=O)/C=C1\SCC(=O)N1CC(=O)c1ccc[nH]1 |  | inconclusive: 3.98 µM [falling, single point] |
| Nc1ccccc1S(=O)(=O)O | inactive: -2.32% |  |
| COc1cc2c(cc1OC)C(COc1ccc3c(C)cc(=O)oc3c1)N(C(=O)c1ccco1)CC2 (stereo not given) |  | active: 1.58 µM |
| O=C(Nc1ccccc1Cl)N1CCN(c2ccccn2)CC1 | inconclusive: 6.31% [at 7.6 µM] |  |
| COc1cc(C2C(C(=O)OC(C)C)=C(C)Nc3ncnn32)cc(OC)c1OC (stereo not given) |  | inconclusive: 12.6 µM [rising, single point] |
| O=C1c2cccc3cccc(c23)N1CN1CCN(c2ccccn2)CC1 |  | inconclusive: 25.1 µM [rising, single point] |
| C=CCNC(=O)c1sc(=S)n(-c2ccc(C(=O)OCC)cc2)c1N | inactive: -14.9% |  |
| CC(C)(O)C#CC#CCN1CCOCC1 | inconclusive: 22% |  |
| COc1ccc(OC)c(-c2nnc(SCC(=O)N3CCOCC3)o2)c1 | inactive: 21.6% |  |
| CC1Cc2ccccc2N1C(=O)COC(=O)c1ccc(S(=O)(=O)N(C)C)cc1 (stereo not given) | inactive: -2.65% |  |
| COCc1cc(C)nc(N2CCOCC2)c1C#N | inactive: 14.1% |  |
| COc1cc(OC)cc(-c2cc3nc(C)c(CCC(=O)NC(C)CCc4ccco4)c(C)n3n2)c1 (stereo not given) |  | inconclusive: 10 µM [rising, single point] |
| CCCn1c(SCC(=O)Nc2nnc(CC)s2)nc2c1c(=O)n(C)c(=O)n2C | inactive: 10.8% |  |
| Cc1ccccc1-c1nc(N(C)C)c2ccccc2n1 | inconclusive: 7.03% |  |
| NC(=O)c1c(NC(=O)CSc2nnc(-c3ccccc3)n2CC2CCCO2)sc2c1CCC2 (stereo not given) | inconclusive: 34.4% |  |
| CC1(C)Cc2c(c(-c3ccccc3)[nH]c(=O)c2C#N)CO1 |  | inconclusive: 15.8 µM [rising, partial curve] |
| Cc1cnc(CNc2ncnc3ccc(-c4ccc(N(C)C)cc4)cc23)cn1 | inconclusive: 17.1% |  |
| CCNc1ncc2nc(-c3ccc(F)cc3)c(=O)n(C)c2n1 |  | inconclusive: 1 µM [rising, full curve] |
| Cc1ccc(S(=O)(=O)c2nc(S(C)(=O)=O)sc2N(C)C)cc1 | inconclusive: -0.658% [at 7.6 µM] |  |

— PubChem BioAssay AID662 (National Center for Advancing Translational Sciences (NCATS), 2007)
